The values below come from paper PMC6451091.

The list shows a part of the results. For part of these data: At the low end of the ranking, values are background and their order means little. For part of these data: The protein was read in a cell extract, so binding may be indirect.

What all share (conditions): 20 mM HEPES pH 7.9, 100 mM NaCl, 1 mM DTT, 0.2 mg/mL BSA, 0.02% Triton X-100, 2% milk, 0.4 mg/mL salmon testes DNA; 1 h; temperature not stated; high values mean tight binding; double strand, one strand shown; sequences stand for … in GCCTAGCAC…GTGCTAGGTCTTGATTCGCTTGACGCTGCTG
One assay has as its target PU.1 (IVT) (UniProt P17947). Kind of assay: protein-binding microarray (PBM).
Assay [1] has as its target PU.1 (endogenous, THP-1 nuclear extract) (UniProt P17947). Briefly: nuclear extract protein-binding microarray (nextPBM).
Assay [2] addresses T1, FLI1 (endogenous, THP-1 nuclear extract) (UniProt Q01543).
T1 sequence: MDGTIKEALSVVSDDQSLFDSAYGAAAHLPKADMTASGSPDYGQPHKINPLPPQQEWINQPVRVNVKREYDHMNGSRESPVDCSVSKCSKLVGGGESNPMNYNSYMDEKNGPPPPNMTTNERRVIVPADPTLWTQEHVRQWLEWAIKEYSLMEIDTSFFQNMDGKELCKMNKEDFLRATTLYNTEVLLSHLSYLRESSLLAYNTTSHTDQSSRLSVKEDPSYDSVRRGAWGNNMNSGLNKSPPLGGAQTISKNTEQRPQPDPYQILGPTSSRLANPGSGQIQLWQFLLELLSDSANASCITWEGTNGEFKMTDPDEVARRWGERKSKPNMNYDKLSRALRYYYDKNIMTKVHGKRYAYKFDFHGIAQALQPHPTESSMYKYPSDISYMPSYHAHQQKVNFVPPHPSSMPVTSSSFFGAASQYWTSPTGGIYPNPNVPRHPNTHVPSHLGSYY
The description is as above.

In the case of AGGAACGGGAAGTGAGCTAC, the binding signal was 4.22 z-score with PU.1 (IVT), 4.97 z-score in assay [1] and 2.26 z-score in assay [2].

With TAAAGCAGGAAGTGAGAATG, the binding signal with PU.1 (IVT) is 3.79 z-score; in assay [1] it was 4.46 z-score; in assay [2], 4.16 z-score.

TCTAAAAGGAAGTGGTGAAT: the binding signal with PU.1 (IVT) came out at 3.1 z-score; in assay [1], 2.86 z-score; in assay [2], 2.66 z-score.

On to TAAATGAGGAAGTGACAGCT, for which the binding signal with PU.1 (IVT) turned out to be 7.57 z-score; in assay [1], 7.12 z-score; in assay [2], 3.23 z-score.

For GAAAAGGGGAAATGGCTTCA, the binding signal was determined as 5.44 z-score with PU.1 (IVT), 5.74 z-score in assay [1] and 2.4 z-score in assay [2].

As for TGAAAGAGAAAGTGCAACCA, the binding signal with PU.1 (IVT) is -0.224 z-score; in assay [1], -0.4 z-score; in assay [2], -0.294 z-score.

Regarding ACAAAACGGAACTGTGCCCC, the binding signal was 2.12 z-score with PU.1 (IVT), 2.21 z-score in assay [1] and 1.81 z-score in assay [2].

Take GAGGAGAGGAAGTGGGGGAG: the binding signal with PU.1 (IVT) is 3.17 z-score; in assay [1], 3.68 z-score; in assay [2] it was 2.75 z-score.

Consider ACAGGAGGGAAGTGGCCTCA, for which the results for the binding signal (in the assay with PU.1 (IVT); in assay [1]; in assay [2]) were 2.3 z-score, 2.5 z-score and 1.2 z-score, respectively.

For the sequence GAAATGAGGAAGTGTCACAT, the binding signal with PU.1 (IVT) is 7.58 z-score; in assay [1], 7.2 z-score; in assay [2], 3.52 z-score.

Consider GAAAAAAGGAACTGGCTAGA, for which the results for the binding signal (with PU.1 (IVT); in assay [1]; in assay [2]) were 4.04 z-score, 3.89 z-score and 1.42 z-score, respectively.

Turning to AAGGAGAGGAAGTGGGTGTC, the binding signal in the assay with PU.1 (IVT) turned out to be 3.99 z-score; in assay [1] it was 4.02 z-score; in assay [2], 3.17 z-score.

On to GGGAAGGGGAAGTGGCTAAG, for which the figures for the binding signal (in the assay with PU.1 (IVT); in assay [1]; in assay [2]) were 5.24 z-score, 5.73 z-score and 2.56 z-score, respectively.

Take CAAAGGGGGAAGTGACTGGC: the binding signal came out at 5.1 z-score with PU.1 (IVT), 5.68 z-score in assay [1] and 2.42 z-score in assay [2].

For the sequence TCTTTGAGGAAGTGAGTTTT, the binding signal in the assay with PU.1 (IVT) was 5.74 z-score; in assay [1], 6.06 z-score; in assay [2], 2.81 z-score.

With AGCAAGAGGAAGTGAGATGA, the binding signal was determined as 4.9 z-score with PU.1 (IVT), 5.34 z-score in assay [1] and 3.02 z-score in assay [2].

On to CAAAAAGTGAAGTGGATGCT, for which the binding signal in the assay with PU.1 (IVT) amounted to 1.81 z-score; in assay [1] it was 1.43 z-score; in assay [2], 0.507 z-score.

For TAAAGAAGGAAGTGAAAATT, the binding signal with PU.1 (IVT) amounted to 4.33 z-score; in assay [1], 4.72 z-score; in assay [2], 2.23 z-score.

In the case of GCAAAGGGGAAGTGCCACAC, the binding signal with PU.1 (IVT) is 6.07 z-score; in assay [1], 6.44 z-score; in assay [2] it was 2.55 z-score.

With TCAGTGGGGAAGTGACATGG, the binding signal amounted to 3.41 z-score in the assay with PU.1 (IVT), 3.09 z-score in assay [1] and 1.32 z-score in assay [2].

In the case of GCAAAGAGGAAGTGACTCAA, the binding signal with PU.1 (IVT) was 6.81 z-score; in assay [1] it was 6.96 z-score; in assay [2] it was 3.68 z-score.

Turning to TGAAAGGGGAAGTGGGTGCC, the binding signal in the assay with PU.1 (IVT) is 6.37 z-score; in assay [1], 6.85 z-score; in assay [2], 3.24 z-score.

On to AGTATGGGGAAGTGTTTAGG, for which the binding signal with PU.1 (IVT) came to 4.86 z-score; in assay [1] it was 4.91 z-score; in assay [2], 1.8 z-score.

Take AGGATGAGGAAGTGTGTGAG: the binding signal in the assay with PU.1 (IVT) was 5.44 z-score; in assay [1] it was 5.81 z-score; in assay [2], 2.53 z-score.

Regarding GAAAAAGGGAAGTGCCCTGC, the binding signal was 7.25 z-score with PU.1 (IVT), 7.12 z-score in assay [1] and 2.96 z-score in assay [2].

In the case of ACAAGGGGGAAGTGGGAGCA, the binding signal with PU.1 (IVT) turned out to be 3.63 z-score; in assay [1], 3.85 z-score; in assay [2], 1.58 z-score.

For GTTAAGAGGAAGTCCTCTGT, the binding signal was found to be 4.91 z-score with PU.1 (IVT), 5.7 z-score in assay [1] and 2.82 z-score in assay [2].

Turning to CAAATAGGGAAGTGGATGCT, the figures for the binding signal (with PU.1 (IVT); in assay [1]; in assay [2]) were 6.41 z-score, 6.54 z-score and 2.77 z-score, respectively.

As for AAAAAGAGGAAGTCTTTTAT, the binding signal was found to be 8.71 z-score with PU.1 (IVT), 7.64 z-score in assay [1] and 4.72 z-score in assay [2].

As for AAAAAGAGGAAGTCATTCTT, the binding signal with PU.1 (IVT) worked out at 8.71 z-score; in assay [1] it was 7.52 z-score; in assay [2] it was 4.56 z-score.

As to TAAGTGGGGAAGTGAAGACA, the binding signal with PU.1 (IVT) turned out to be 3.06 z-score; in assay [1], 2.79 z-score; in assay [2], 1.29 z-score.

As for TGAAAGAGGAAGTGCAACCT, the binding signal with PU.1 (IVT) worked out at 7.49 z-score; in assay [1], 7.43 z-score; in assay [2], 4.07 z-score.

In the case of CTTTTGGGGAAGTGGTTTCC, the binding signal was 5.19 z-score with PU.1 (IVT), 5.98 z-score in assay [1] and 2.83 z-score in assay [2].

Turning to TGAAAAGGGAAGTGTGAAAG, the binding signal was 5.09 z-score with PU.1 (IVT), 5.57 z-score in assay [1] and 2.12 z-score in assay [2].

GAAAACAGGAAGTCCCAGAG: the binding signal with PU.1 (IVT) is 7.04 z-score; in assay [1], 7.07 z-score; in assay [2], 4.35 z-score.

In the case of GCAAAGGGGAAGTGGTCAGA, the binding signal with PU.1 (IVT) was 6.17 z-score; in assay [1], 6.54 z-score; in assay [2], 3.07 z-score.

Take GCTGGGAGGAAGTGAGACCT: the binding signal with PU.1 (IVT) was 3.28 z-score; in assay [1], 3.36 z-score; in assay [2], 2.56 z-score.

Regarding CAAAAATGGAAGTGGATGCT, the binding signal was found to be 2.54 z-score with PU.1 (IVT), 1.57 z-score in assay [1] and 1.44 z-score in assay [2].

Turning to GTCATGAGGAAGTGAATGCT, the binding signal with PU.1 (IVT) turned out to be 5.04 z-score; in assay [1] it was 5.3 z-score; in assay [2] it was 2.73 z-score.

CTGATGAGGAAGTGGAACAA: the binding signal was 4.89 z-score with PU.1 (IVT), 5.84 z-score in assay [1] and 2.45 z-score in assay [2].

As to AAAATGAGGAAGTGCTTCTA, the binding signal was 8.37 z-score with PU.1 (IVT), 7.64 z-score in assay [1] and 3.92 z-score in assay [2].

Consider ACAAAAAGGAACTATGCCCC, for which the figures for the binding signal (with PU.1 (IVT); in assay [1]; in assay [2]) were 2.55 z-score, 2.05 z-score and 0.635 z-score, respectively.

AGAAAGAGGAACTTGGGCAG: the binding signal is 6.95 z-score in the assay with PU.1 (IVT), 6.98 z-score in assay [1] and 2.47 z-score in assay [2].

In the case of GGAGGAAGGAAGTGAGCAGA, the values for the binding signal (in the assay with PU.1 (IVT); in assay [1]; in assay [2]) were 2.05 z-score, 2.19 z-score and 2.04 z-score, respectively.

As for AAAAACAGGAAGTCCTATTC, the figures for the binding signal (in the assay with PU.1 (IVT); in assay [1]; in assay [2]) were 7.91 z-score, 7.17 z-score and 5.02 z-score, respectively.

In the case of GAAAGAAGGAAGTGCCAGGC, the binding signal with PU.1 (IVT) came to 4.47 z-score; in assay [1], 5.19 z-score; in assay [2], 1.99 z-score.

Regarding AGAGAGGGGAAGTGACTTGC, the figures for the binding signal (with PU.1 (IVT); in assay [1]; in assay [2]) were 4.95 z-score, 4.75 z-score and 2.64 z-score, respectively.

Consider CCTTAGAGGAAGTGGCATTT, for which the binding signal amounted to 4.27 z-score with PU.1 (IVT), 4.56 z-score in assay [1] and 2.73 z-score in assay [2].

In the case of TAGAAGAGGAACTGCTGCCC, the binding signal with PU.1 (IVT) worked out at 3.92 z-score; in assay [1] it was 4.31 z-score; in assay [2], 0.878 z-score.
